# ± gives the standard deviation of the averaged measurements. This is one part of the list.
# System: PfAP2-G AP2 domain (GST-tagged)
# Assay: gcPBM binding intensity (ln(normalized median fluorescence intensity)); higher = stronger DNA binding
# Outline: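 An Agilent 4 × 180k array of primer-extended double-stranded 36-bp intergenic genomic probes, with negative controls, was incubated for 1 h with GST-tagged P. falciparum DNA-binding domains expressed in E. coli. Alexa488 anti-GST antibody detected bound protein, scanned at 488 nm. Binding intensity is the highest Masliner-normalised natural-log median intensity across replicate spots of either probe orientation.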
row,Sequence,gcPBM binding intensity (ln)
1,TGTGTTGTAACAAAATGTACGAGCTTGATGTAGAAT [XGTACX_site2293],10.8 ± 0.47
2,ATAAACTGATGTGTATGTACACATGTAATAATAAAT [XGTACX_site7649],11.4 ± 0.97
3,AATGTAGGTTTATTTACACACAAATATAAATATATA [CACACA_site1523],9.845 ± 0.035
4,AACTATTTTATTATATGTACTTACGAATTTATAAAA [XGTACX_site5262],11.3 ± 1
5,TAATATACATAATAATGTACATATTTTCATATATAC [XGTACX_site6913],11 ± 0.5
6,CACAAAATAAATTAAACACACAACATCAGATATGTA [CACACA_site6529],9.905 ± 0.078
7,ATTTAAATTATAAAATGTACATTTAACAAATTTTAT [XGTACX_site770],10.9 ± 0.59
8,TGTAATCTGGAGAAAAGTACACAGTATCTGGTAGCT [XGTACX_site2039],11.3 ± 0.86
9,TAACATTATATATATTGTACATAGTAAATATTATAT [XGTACX_site5421],10.6 ± 0.45
10,TATACAACGTTAAGCACACACAAAAAAAATTTAATA [CACACA_site3086],10 ± 0.18
11,ATATATGGGGCGCAGGAAAAGAGTTTTGGAAATAAA [CACACA_negctrl_site1265],10.16 ± 0.085
12,AAGTTATATAAAGGAACACACATTTGATTTTATTTT [CACACA_site6814],9.98 ± 0.11
13,TTTAATTATTAAATGGTGCACTTGAAATATAAAAAT,10.7 ± 0.65
14,CTTTTAATGGTGTAAAGTACTTTCTTAAGGTTCAAA [XGTACX_site8423],10.9 ± 0.49
15,TGGAGGTCAGTTCACAGTACCCAGAAAACTCTACGA [XGTACX_site2561],11 ± 0.62
16,AAAATGATGTTAATTACACACATCATCTCATAAACA [CACACA_site3017],9.8 ± 0.014
17,ATAAAACATAAAAATCGTACAAAGGAGGATATAAGG [XGTACX_site420],11.3 ± 0.94
18,ATTATTTATTATTTCTGTACGTATAAAAATAACATT [XGTACX_site1671],11.7 ± 1.1
19,ATATACTTACATATTACACACAATATTTTTAAATGT [CACACA_site3627],10.135 ± 0.007
20,CTAATCAAAATAAATTAACACACAATTTTAATATTG [CACACA_site7887],9.65 ± 0.27
21,AAAGTAAAAAAAAAAACATGCACATATTTACTTTAT [TGCATGCA_site849],9.77 ± 0.32
22,TTTTTTTTGGTTTTCATGCACACAATTTATAAATCT [CACACA_site3107],10.5 ± 0.29

row,Sequence,gcPBM binding intensity (ln)
1,AAGGGAATATACCTTACACACAAAAATGCAGATATA [CACACA_site1451],9.88 ± 0.028
2,GTTAATATACTTAATACACACACGAATATATATAAA [CACACA_site1181],10.2 ± 0.19
3,AAAAAAAAAAAGAAGGAAACATTTGACCAAAAATAT [GTGCAC_negctrl_site404],10.6 ± 0.28
4,ATTCTATACATATATATACACACGTAGTTTCTATTT [CACACA_site2223],10.02 ± 0.049
5,TTTTAAATATGCCATACACACTACTATATAATAAAT [CACACA_site5119],10.1 ± 0.12
6,AAAAAAAAAAAATATTGTAGAATATGATGACTTTGT [GTGCAC_negctrl_site554],9.58 ± 0.3
7,AACAACCAAAGGCACACACACAAAAAAAAAAATATA [CACACA_site399],10.2 ± 0.39
8,CTGCGTTTAATATGCGTGCACCTTGGTTTTATATCT [GTGCAC_site9525],10.4 ± 0.2
9,ATTTTATTTTCATATGAACACACATATATATATTAT [CACACA_site8741],10.19 ± 0.092
10,ACAAAACTGTCTTTCACACAGAAATAAAAAAAAAAA [CACACA_site5829],9.91 ± 0.38
11,TGATAAGGATGTGAATTACTCAAAGGAAGTAATCAT [CACACA_negctrl_site1432],9.895 ± 0.092
12,AAATTTCATGGGTATTGTACATAATTTTATTATATA [XGTACX_site4988],10.9 ± 0.62
13,ACATAAGATGAAAAATGTACATTCAAAAAATGAAAT [XGTACX_site3227],10.9 ± 0.72
14,AAAGTAAAAGAAAGCACACACACATGGATTTATGTA [CACACA_site5997],10.06 ± 0.035
15,TTCTTTTTAAATTACACACACATATATATATGTATA [CACACA_site3515],10.07 ± 0.085
16,AGATATTATTTATATATTTATATATATATATAGATA [TGCATGCA_negctrl_site77],9.54 ± 0.11
17,AGAGAAAAAAAAAATTGTACGTATGTAATAATATGC [XGTACX_site2981],11.3 ± 0.66
18,TAAATATCAAGACACACACACAAAAGTGAATAAATA [CACACA_site7723],10.1 ± 0.18
19,CCATGTAGTGAATAGGTGCATATCAAAAAAAAAAAA,10.1 ± 0.57
20,ATACATATGGTGGATCGTACATATATATAATATGTA [XGTACX_site8631],10.9 ± 0.4
21,ACAGAAAATAAAATTTGTACATATATAGAATAAAGA [XGTACX_site3014],10.8 ± 0.39
22,TATTTACACCCATGCGCACACATAAATAAATAATAG [CACACA_site5350],10.7 ± 0.52

row,Sequence,gcPBM binding intensity (ln)
1,TATATATATGTATGTGGTACTTATATTATATACATA [XGTACX_site4550],10.9 ± 0.67
2,TTATACACAAAAAAAAAAATATATATATATATATAT [XGTACX_negctrl_site5],9.7 ± 0.42
3,ATTTATGAGTAATACACACACTTGTGGATATATTAC [CACACA_site7735],10.2 ± 0.16
4,TTTATATAATATAAATTTTTTTTGCAGTAATAAAAA [TGCATGCA_negctrl_site570],9.78 ± 0.15
5,ACTTCAAAAAAAAAAAAATATATATATATATATTAT [GTGCAC_negctrl_site158],9.54 ± 0.11
6,TGTTGTATTGAAGCTAAAAAATGAGGCAAAAAAAAA [CACACA_negctrl_site1189],10.2 ± 0.26
7,AAGAAAAACTTATATATATATATATATATATATATA [TGCATGCA_negctrl_site466],10.2 ± 1
8,TCATACATGTATATGTGTACATATAATGTATATTCC [XGTACX_site6082],11.3 ± 0.95
9,TTTTTTTTTTTTTTTTTTTTTTTATGTTCTTAAAAA [GTGCAC_negctrl_site62],9.56 ± 0.35
10,TTTTTTTTTTTTACGTGTACATAAATGTTAAGTAAT [XGTACX_site3901],11.4 ± 0.91
11,AAAATATAGGTATGCACACACATATACTTCTGTGCA [CACACA_site1409],10.15 ± 0.064
12,AAAAAAAAAAAAAAAAGTACAAAAAGAAGAAAAAAA [XGTACX_site6521],11.3 ± 0.85
13,TATAAATATTTATGTACACACATATACATGTTGAAT [CACACA_site5684],11.3 ± 0.82
14,CAATGTTAACATATTACACACATATGTATTTATAAC [CACACA_site7314],10.1 ± 0.099
15,TAAATATATAATAAATGTACATATTAATATTATGGT [XGTACX_site1498],11.1 ± 0.45
16,TATAAATATACAAACACACATACAAACATATATATA [CACACA_site1120],10.1
17,TTAATACCCAGACACACACACACAAAATAAAATACA [CACACA_site7968],10.2 ± 0.4
18,AAAAAAAATTTAATTGCACACAGGAAAATATAATTT [CACACA_site3810],10.015 ± 0.007
19,TAAATACAGAGGAAAATACACACGTATATATATAAA [CACACA_site3410],10.3 ± 0.13
20,ATTTGATATATAATAATACACACTTACATAATTAAT [CACACA_site290],9.985 ± 0.035
21,TCTTTTTCAAGATGACGTACTTAGATTAATATAAAA [XGTACX_site3931],11.1 ± 0.8
22,TTTTTTTAATGATATTGTACATTAATAAAAAATATG [XGTACX_site1719],10.8 ± 0.61

row,Sequence,gcPBM binding intensity (ln)
1,ATCGTGTTAAATGTTGTGCACATATAAATTACAAAA [GTGCAC_site9822],10.8 ± 0.52
2,AATTTTGGAACGTGCACACATATGTAATATATATAT [CACACA_site3067],10.5 ± 0.36
3,ATATGATCATTTTATCATTTTGCTTTTTCTTTTTTT [CACACA_negctrl_site1325],9.4 ± 0.42
4,TTTTGATCTGAAGGAACCTAAAAAGGGAAGAGAAAA [CACACA_negctrl_site1656],10.1 ± 0.35
5,CAAAAGTAAGCACGCACACACAACATGAAATAAAAT [CACACA_site165],10.3 ± 0.28
6,TATACACTTATTGGTGGTACAATATATAAATATATG [XGTACX_site3289],11.4 ± 0.89
7,TTTTTAATATATTAGGTGCACAATAATACACTTTAT,10.6 ± 0.51
8,TATATATATATTTATACACACACATATATTTATATA [CACACA_site8054],9.93 ± 0.16
9,ATTAGTATAATGTAACTTAGTTAATAGTGCTAATAT [CACACA_negctrl_site764],10.2 ± 0.29
10,ACAAAATAAAACATCTGTACATATTATTATTATAAG [XGTACX_site4802],11.1 ± 0.64
11,TATATTTATAACAACACACACAGATCATAAAACTGC [CACACA_site7086],10.2 ± 0.12
12,AAAAAAAAAAAAAAAACACACACATGCACATCATAT [CACACA_site8083],10.4 ± 0.21
13,AAAAAAAACACGCGCACACACACACCCACCCACCGA [CACACA_site2206],10.7 ± 0.34
14,TTTTTGGTATTATTGTGTACTTATAAATAATATAAT [XGTACX_site4019],11.5 ± 0.91
15,GAAAAAAAAGCTTGCACACGTATTTGCTTTATGTAT [CACACA_site4931],10.5 ± 0.13
16,TACATATATATATTATGTACATAAGGTTTGAGTTCA [XGTACX_site2726],11.1 ± 0.61
17,TTTTATACATATTTTACACACTAAAATATACCTATA [CACACA_site6286],10.11 ± 0.071
18,TAAAAAATATACATTCGTACATATATATTATATATA [XGTACX_site7918],10.8 ± 0.67
19,ATATATATAAATAATTGTACATAATAATAAAATATA [XGTACX_site4839],11 ± 0.64
20,ATATTTTGTAACTATACACACATATTTATATTATAA [CACACA_site7433],10.04 ± 0.078
21,CAAGTAGATATTATACGTACATATATATATATATAT [XGTACX_site8349],11.4 ± 0.84
22,TTTACATTTCAGTAGACACACAAAAAATAATACTAA [CACACA_site512],10.2 ± 0.28

# From the supplement of paper PMC11417369
